Measurements taken from PubChem BioAssay AID504832 (National Center for Advancing Translational Sciences (NCATS), 2011).
In all, about 310,000 compounds went through this assay and about 18,000 (5.8%) were called active. The inconclusive results got no clear call from the source; some entries with a clear call stand among them for comparison. Calls come from the whole dose curve; as a rule, active = well fitted inhibition curve with a large enough effect; inconclusive = small, poorly fitted or top-dose-only effect, or another doubt; inactive = no such curve, though single readings can be large or run the other way. No potency is given beside an inconclusive call; the fits are too rough.

Test: Primary qHTS for delayed death inhibitors of the malarial parasite plastid, 48 hour incubation
Details: P. falciparum luciferase growth in erythrocytes; series mostly up to 28.7 µM; activity change, negative = inhibition: at the top concentration
Summary of the method: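 In quantitative HTS format, infected erythrocytes bearing luciferase-reporter parasites were treated for a single generation at 37 C. Luminescence after adding detection reagent served as the growth measure.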
% is set by controls: 0 for no effect and ±100 for the full control effect; potency is the fitted concentration of half-maximal effect; tags give direction and shape of the fitted curve.

Q: For `O=C(COC(=O)c1nc(Cl)ccc1Cl)Nc1ncc(Cl)cc1Cl`, which “activity change, negative = inhibition” value is on record?
A: inactive: 30.6%

Q: For `CCOC(=O)c1sc2ncn(/N=C/N(C)C)c(=O)c2c1C`, which “activity change, negative = inhibition” value is on record?
A: inactive: 51%

Q: With `Cc1c(OCC(=O)NCc2cccnc2)ccc2c3c(c(=O)oc12)CCC3` as the molecule, how does the “activity change, negative = inhibition” value read?
A: inactive: -6.09%

Q: With `CC(=O)C1=C(O)CC(c2ccccc2)CC1=NCCc1c(C)[nH]c2ccccc12` (centres undefined) as the molecule, how does the Potency read?
A: active: 7.38 µM

Q: Which “activity change, negative = inhibition” value does the source give for `O=C(COc1ccc2ccccc2c1Br)NCc1ccccn1` here?
A: inactive: 33.5%

Q: For `CC1Cc2ccccc2N1C(=O)CSc1nnc(N)s1` (centres undefined), which “activity change, negative = inhibition” value is on record?
A: inactive: -17.1%

Q: For `CCc1nc(SCC(=O)Nc2nccs2)c2oc3ccccc3c2n1`, which Potency is on record?
A: inconclusive [inhibitor, single point]

Q: With `CC(c1ccccc1)n1c(NCCCn2ccnc2)nc2c1c(=O)[nH]c(=O)n2C` (centres undefined) as the molecule, how does the Potency read?
A: inconclusive [inhibitor, single point]

Q: With `COc1ccc(CCC(C)NCC2CCCCC2)cc1` (centres undefined) as the molecule, how does the Potency read?
A: inconclusive [inhibitor, single point]

Q: With `Cc1cccn2c(CNC3CCCc4ccccc43)c(C(=O)N3CCCCC3)nc12` (centres undefined) as the molecule, how does the Potency read?
A: inconclusive [inhibitor, partial curve]

Q: Which Potency does the source give for `O=C(c1cccc(Cl)c1)N1CCCC(C(=O)N2CCCCCC2)C1` (centres undefined) here?
A: inconclusive [inhibitor, full curve, poor fit]

Q: For `COc1cccc(OCCc2c(C)n[nH]c2C)c1`, which “activity change, negative = inhibition” value is on record?
A: inactive: 12.2%

Q: For `C/C(=C\c1ccccc1)CN1CCC(C(=O)N2CCCC(C)C2)CC1` (centres undefined), which Potency is on record?
A: inconclusive [inhibitor, single point]

Q: With `O=C(CCNS(=O)(=O)c1ccccc1C(F)(F)F)N1CCN(S(=O)(=O)c2cccc(Cl)c2)CC1` as the molecule, how does the Potency read?
A: inconclusive [inhibitor, single point]

Q: Which “activity change, negative = inhibition” value does the source give for `CCN(CC)CCCNC(=O)CNC(=O)c1nn(-c2ccc(OC)cc2)c(=O)c2ccccc12` here?
A: inactive: -13.8%

Q: With `Cc1ccc(-c2cc(C(=O)NCCCn3ccnc3)c3cc(Br)ccc3n2)o1` as the molecule, how does the Potency read?
A: active: 9.28 µM

Q: For `CCOc1cc(NC(=O)c2ccco2)c(OCC)cc1NC(=O)c1cc(OC)c(OC)c(OC)c1`, which Potency is on record?
A: inconclusive [inhibitor, partial curve, poor fit]

Q: With `CCCc1nnc(NC(=O)CCC(=O)N2CCN(CCOc3ccc(C)cc3)CC2)s1` as the molecule, how does the Potency read?
A: active: 10.4 µM

Q: With `Cc1cc2c(c(/C=C/C(=O)c3ccccc3)c1)OC1(C=C2)Oc2ccccc2C(=O)N1C` (centres undefined) as the molecule, how does the Potency read?
A: inconclusive [inhibitor, partial curve]

Q: With `COc1ccc(-c2nc3ccccc3c(C(=O)Nc3ccc(S(=O)(=O)Nc4cc(C)on4)cc3)c2C)cc1` as the molecule, how does the Potency read?
A: active: 10.4 µM

Q: With `COc1ccc2c(c1)CCc1c-2nc2ccccc2c1N1CCOCC1` as the molecule, how does the Potency read?
A: inconclusive [inhibitor, full curve]

Q: With `Cc1ccc(OCC(O)CNCc2ccccc2)cc1C` (centres undefined) as the molecule, how does the Potency read?
A: inconclusive [inhibitor, partial curve, poor fit]

Q: Which “activity change, negative = inhibition” value does the source give for `COc1cccc(NC(=O)c2sc3nc(N4CCOCC4)c4c(c3c2N)CCCC4)c1` here?
A: inactive: -12%

Q: For `Cc1cccc(NC(=O)c2nc[nH]c2C(=O)N[C@@H](C)C(=O)OC(C)(C)C)c1`, which Potency is on record?
A: inconclusive [inhibitor, partial curve]

Q: Which Potency does the source give for `CCOC(=O)c1ccc(N=C2SC(C(=O)Nc3ccc(C(=O)O)cc3)CC(=O)N2Cc2cccs2)cc1` (centres undefined) here?
A: inconclusive [inhibitor, single point]

Q: With `COc1ccc(-c2nc(SC(C)C(=O)NC3CC3)n[nH]2)cc1` (centres undefined) as the molecule, how does the Potency read?
A: inconclusive [inhibitor, single point]

Q: With `N#Cc1c(-c2cccs2)nc(SCc2ccc(Cl)cc2)[nH]c1=O` as the molecule, how does the “activity change, negative = inhibition” value read?
A: inactive: 66.3%

Q: Which Potency does the source give for `CCC(=O)Nc1ccccc1C(=O)OC(c1ccccc1)c1ccccc1` here?
A: inconclusive [inhibitor, single point]

Q: With `COc1ccc(CCNC(=O)CSc2nc(O)c(C(C)C)c(=O)[nH]2)cc1OC` as the molecule, how does the “activity change, negative = inhibition” value read?
A: inactive: -22.6%

Q: With `C/C=C/c1ccc(OCCCn2cncn2)c(OC)c1` as the molecule, how does the “activity change, negative = inhibition” value read?
A: inactive: 26.9%

Q: With `CCOc1ccc(NS(=O)(=O)c2cc(C(=O)NCCCN3CCOCC3)ccc2C)cc1` as the molecule, how does the Potency read?
A: inconclusive [inhibitor, single point]

Q: For `CC(C)C[C@H](NC(=O)OC(C)(C)C)C(=O)N[C@@H](CO)[C@H](O)[C@@H]1C[C@@H]1C(=O)N(C)C`, which Potency is on record?
A: inconclusive [inhibitor, full curve, poor fit]

Q: With `CCN(CC)S(=O)(=O)c1ccc(N2CCN(C)CC2)c(NC(=O)CSCC(=O)Nc2cccc(C)c2)c1` as the molecule, how does the Potency read?
A: active: 16.5 µM

Q: With `COc1cccc(NC(=O)CSc2nncn2-c2ccccn2)c1` as the molecule, how does the “activity change, negative = inhibition” value read?
A: inactive: 9.29%

Q: For `Cc1ccc(CCNC(=O)c2ccc(CS(=O)(=O)c3ccccc3C)o2)cc1`, which Potency is on record?
A: inconclusive [inhibitor, single point]

Q: Which Potency does the source give for `COc1ccccc1NC(=O)C(=O)NCC(c1ccco1)N1CCc2ccccc2C1` (centres undefined) here?
A: active: 5.22 µM

Q: For `CCOC(=O)Cc1nnc(NC(=O)CSc2nnc3c(n2)[nH]c2ccccc23)s1`, which Potency is on record?
A: inconclusive [inhibitor, full curve, poor fit]

Q: With `C=CCc1cc(OC)ccc1OCC(O)CN1CCN(c2ccc(OC)cc2)CC1` (centres undefined) as the molecule, how does the Potency read?
A: inconclusive [inhibitor, partial curve, poor fit]

Q: With `C/C(=N\NC(=O)C(=O)Nc1cccc(Cl)c1C)c1ccncc1` as the molecule, how does the “activity change, negative = inhibition” value read?
A: inactive: -4.5%

Q: With `O=C(N/N=C/c1ccccn1)c1ccc(Br)o1` as the molecule, how does the Potency read?
A: inconclusive [inhibitor, partial curve]

Q: With `Cc1ccc(S(=O)(=O)N2CCN(C(=O)c3ccc(Br)o3)CC2)c(C)c1` as the molecule, how does the Potency read?
A: active: 6.57 µM

Q: For `COc1cc(OC)cc(C(=O)N(Cc2cc3cc(C)ccc3[nH]c2=O)C(C)C)c1`, which Potency is on record?
A: inconclusive [inhibitor, partial curve, poor fit]

Q: For `CCOc1ccccc1NC(=S)N1CCN(c2cccc(C)c2C)CC1`, which Potency is on record?
A: inconclusive [inhibitor, single point]

Q: Which Potency does the source give for `N#Cc1ccc(NCC(=O)N2CCN(S(=O)(=O)c3ccccc3)CC2)cc1` here?
A: inconclusive [inhibitor, single point]

Q: With `Cc1ccc(Cl)cc1N1CCN(S(=O)(=O)c2ccc3c(c2)CC(=O)N3C)CC1` as the molecule, how does the Potency read?
A: inconclusive [inhibitor, single point]

Q: Which Potency does the source give for `CCOc1ccc(CCNC(=O)CN2C(=O)NC3(CCc4ccccc43)C2=O)cc1OCC` (centres undefined) here?
A: inconclusive [inhibitor, partial curve, poor fit]

Q: With `COc1ccccc1NS(=O)(=O)c1cccc(C(=O)NN)c1` as the molecule, how does the “activity change, negative = inhibition” value read?
A: inactive: -8.8%

Q: For `O=C(CN1CC[n+]2c(-c3ccccc3)csc21)c1ccc(Br)cc1`, which Potency is on record?
A: active: 7.38 µM

Q: For `COc1ccc(CNC(=O)Cn2nc(C)c3c(C)n(-c4ccc(C)cc4)nc3c2=O)cc1OC`, which Potency is on record?
A: inconclusive [inhibitor, partial curve]

Q: With `COc1cccc(/C=C2\SC(=O)N(CCC(=O)N3CCCCC3CCO)C2=O)c1` (centres undefined) as the molecule, how does the Potency read?
A: inconclusive [inhibitor, partial curve]

Q: Which Potency does the source give for `COc1ccc(/C=N/NC(=O)c2cc(O)c(O)c(O)c2)cc1Cn1cc([N+](=O)[O-])cn1` here?
A: inconclusive [inhibitor, full curve, poor fit]

Q: For `Cc1onc(-c2ccccc2Cl)c1C(=O)NCc1nc(-c2ccc(C(F)(F)F)cc2)no1`, which Potency is on record?
A: inconclusive [inhibitor, single point]

Q: With `CCCCCCNc1nc(Cl)nc(NC(C)(C)CO)n1` as the molecule, how does the Potency read?
A: inconclusive [inhibitor, full curve, poor fit]

Q: With `COC(=O)CN1C(=S)N(c2ccc(Cl)cc2)C(=O)C1CC(=O)Nc1ccc(F)cc1` (centres undefined) as the molecule, how does the Potency read?
A: inconclusive [inhibitor, single point]

Q: With `CCOP(=O)(OCC)C(Nc1cccc([N+](=O)[O-])c1)c1ccc(N(C)C)cc1` (centres undefined) as the molecule, how does the Potency read?
A: inconclusive [inhibitor, full curve]

Q: For `COc1ccccc1NC(=O)CC1SC(=N)N(c2ccccc2)C1=O` (centres undefined), which Potency is on record?
A: inconclusive [inhibitor, partial curve, poor fit]

Q: With `COC(=O)/C(C#N)=C/c1c(N2CCN(c3ccc(OC)cc3)CC2)nc2c(C)cccn2c1=O` as the molecule, how does the Potency read?
A: inconclusive [inhibitor, partial curve]

Q: Which Potency does the source give for `Cc1cc(C)c(NC(=O)c2cc3c(nc4sccn43)s2)c(C)c1` here?
A: inconclusive [inhibitor, single point]

Q: Which “activity change, negative = inhibition” value does the source give for `CN(C)C(=O)c1nc2ccccc2s1` here?
A: inactive: 33.1%

Q: Which “activity change, negative = inhibition” value does the source give for `COc1ccc(NC(=S)NCCC2=CCCCC2)cc1OC` here?
A: inactive: -23.3%

Q: For `CC[N+](CC)(CC)CC`, which Potency is on record?
A: inconclusive [inhibitor, partial curve]

Q: Which “activity change, negative = inhibition” value does the source give for `CNC(=O)c1cc(Cl)c(OC)c(OC)c1` here?
A: inactive: 18.5%

Q: Which “activity change, negative = inhibition” value does the source give for `O=C(Nc1ccncc1)C1CC(=O)N(c2ccc(F)cc2)C1` (centres undefined) here?
A: inactive: 5.73%

Q: For `CCOC(=O)N1CCN(CC(=O)Nc2c(C(=O)OC)[nH]c3ccccc23)CC1`, which Potency is on record?
A: inconclusive [inhibitor, partial curve]

Q: For `CC1(CN2CCC(n3c(=O)[nH]c4ccccc43)CC2)OCc2ccccc2-n2cccc21` (centres undefined), which Potency is on record?
A: active: 15.1 µM

Q: Which Potency does the source give for `COc1ccc(/C=C/C(=O)NC(=S)NNC(=O)c2cc(OC)c(OC)c(OC)c2)cc1OC` here?
A: inconclusive [inhibitor, partial curve, poor fit]

Q: For `CCOc1ccc(CN2CCN(S(=O)(=O)c3ccc(NC(C)=O)cc3)CC2)cc1OC`, which Potency is on record?
A: inconclusive [inhibitor, single point]

Q: With `O=C(Nc1cccnc1)c1ccc(-c2ccc(Cl)cc2)o1` as the molecule, how does the “activity change, negative = inhibition” value read?
A: inactive: 19.9%

Q: With `CC1CN(c2ccnc3cc(Cl)ccc23)CC(C)O1` (centres undefined) as the molecule, how does the Potency read?
A: inconclusive [inhibitor, single point]
